Measured values from patent US12246066 (AGENUS, dated 2025).

Biological target: T1, human CTLA-4 on Jurkat cells engineered to constitutively express human CTLA-4 (Promega) (human, UniProt P16410 36-223)
T1 construct: Bought cell line; also called CTLA-4-expressing cells; cells expressing human CTLA-4
Assay: flow cytometry, 5 µg/ml antibody on Jurkat cells expressing human CTLA-4
Procedure: The binding of anti-CTLA-4 antibodies AGEN1884.H3 (IgG_1 S239D/I332E), AGEN1884.H3 (IgG_1 S239D/A330L/I332E), and AGEN1884.H3 (IgG_1L235V/F243L/R292P/Y300L/P396L) to CTLA-4-expressing cells was characterized similarly as described above. Briefly, Jurkat cells engineered to express human CTLA-4 (Promega) were stained first with 5 μg/ml of an anti-CTLA-4 antibody or an isotype control antibody and then with an anti-human IgG secondary antibody (Thermo Scientific, Cat #31529). The cells were analyzed using BD FACS Canto II.

B1: AGEN1884.H3 (IgG1 S239D/I332E) (antibody)
heavy: EVQLVESGGGLVKPGGSLRLSCAASGFTFSSYSMNWVRQAPGKGLEWVSSISSSSSYIYYAESVKGRFTISRDNAKNSLYLQMNSLRAEDTAVYYCARVGLFGPFDIWGQGTLVTVSSASTKGPSVFPLAPSSKSTSGGTAALGCLVKDYFPEPVTVSWNSGALTSGVHTFPAVLQSSGLYSLSSVVTVPSSSLGTQTYICNVNHKPSNTKVDKRV[human IgG1 Fc with changes left out]
light: EIVLTQSPGTLSLSPGERATLSCRASQSVSRYLGWYQQKPGQAPRLLIYGASTRATGIPDRFSGSGSGTDFTLTITRLEPEDFAVYYCQQYGSSPWTFGQGTKVEIKRTVAAPSVFIFPPSDEQLKSGTASVVCLLNNFYPREAKVQWKVDNALQSGNSQESVTEQDSKDSTYSLSSTLTLSKADYEKHKVYACEVTHQGLSSPVTKSFNRGEC
binding result: binds
